From publication PMC4336329 (PLoS ONE, 2015)
The campaign covered roughly 310,000 compounds. About 14,000 (4.5%) showed an effect of 50% or more. Effects have a minus sign here. Some of the results follow.

The compounds below were run against human ether-à-go-go-related gene (hERG) potassium channel (human, UniProt Q12809) (assay: primary screen, population patch clamp on CHO cells stably expressing hERG).
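Also: peak tail current of the secondary pulse compared with the same well before compound.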

Chain of human ether-à-go-go-related gene (hERG) potassium channel (Q12809 whole entry, looked up): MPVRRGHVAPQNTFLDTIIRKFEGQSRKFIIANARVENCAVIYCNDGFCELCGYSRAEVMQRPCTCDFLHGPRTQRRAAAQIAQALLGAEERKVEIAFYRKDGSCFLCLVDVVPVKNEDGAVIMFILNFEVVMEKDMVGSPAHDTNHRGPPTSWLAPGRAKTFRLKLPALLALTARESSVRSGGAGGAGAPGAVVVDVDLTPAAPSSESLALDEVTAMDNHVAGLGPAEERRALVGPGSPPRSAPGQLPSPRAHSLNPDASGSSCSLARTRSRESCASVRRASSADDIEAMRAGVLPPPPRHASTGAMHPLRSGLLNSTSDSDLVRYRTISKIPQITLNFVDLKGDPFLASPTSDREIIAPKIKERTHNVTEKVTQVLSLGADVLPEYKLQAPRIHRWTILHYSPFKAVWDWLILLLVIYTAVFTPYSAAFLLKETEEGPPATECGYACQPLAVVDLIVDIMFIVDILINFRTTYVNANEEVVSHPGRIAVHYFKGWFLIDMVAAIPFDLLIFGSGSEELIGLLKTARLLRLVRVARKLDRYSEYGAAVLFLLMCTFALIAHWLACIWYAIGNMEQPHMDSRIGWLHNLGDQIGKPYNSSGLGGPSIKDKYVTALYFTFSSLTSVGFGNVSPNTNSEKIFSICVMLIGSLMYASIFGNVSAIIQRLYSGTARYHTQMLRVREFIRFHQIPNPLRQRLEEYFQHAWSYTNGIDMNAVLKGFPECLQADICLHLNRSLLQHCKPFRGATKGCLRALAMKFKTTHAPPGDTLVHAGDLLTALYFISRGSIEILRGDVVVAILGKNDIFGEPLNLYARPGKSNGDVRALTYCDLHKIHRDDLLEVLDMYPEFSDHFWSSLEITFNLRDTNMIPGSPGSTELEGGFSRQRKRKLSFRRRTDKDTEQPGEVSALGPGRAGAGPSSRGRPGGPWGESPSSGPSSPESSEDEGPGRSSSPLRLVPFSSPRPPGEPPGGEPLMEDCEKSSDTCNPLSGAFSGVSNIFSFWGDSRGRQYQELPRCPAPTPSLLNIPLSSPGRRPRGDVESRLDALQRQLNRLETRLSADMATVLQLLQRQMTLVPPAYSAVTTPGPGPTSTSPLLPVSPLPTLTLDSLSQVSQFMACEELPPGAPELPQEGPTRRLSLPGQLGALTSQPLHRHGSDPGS

| Structure (SMILES) | hERG current change (%, negative = inhibition) at 10uM [%] |
| --- | --- |
| COc1cccc(/C=C2\N=C(c3c(-c4ccccc4)noc3C)OC2=O)c1 | 15.8 |
| S=C(NCc1ccco1)Nc1cccc(Cl)c1Cl | -3.13 |
| Cc1ccc(C)c(S(=O)(=O)N2CCCOC2CNC(=O)C(=O)NCCCN2CCOCC2)c1 (stereo not shown) | 0.752 |
| COC(=O)C1=C(c2ccccc2OCc2ccccc2)C[C@@H]2CC[C@H]1N2C(=O)NCc1ccc(Cl)cc1 | 18.9 |
| Cc1ccccc1C(=O)NC(=S)Nc1ccccc1C(F)(F)F | 16.8 |
| COc1cccc(-n2ccnc2SCC(=O)Nc2ccccc2F)c1 | -27 |
| COc1cc(C(=O)O/N=C(\N)Cc2ccc([N+](=O)[O-])cc2)cc(OC)c1OC | -68.9 |
| CN1CCCC(C(=O)c2ccc(Cl)cc2)C1 (stereo not shown) | -23 |
| Cn1cc(S(=O)(=O)NCC2CCCO2)c(=O)n(C)c1=O (stereo not shown) | -9.16 |
| O=C(O)c1cc(O)c2c(c1)C(=O)c1cc(O)cc(O)c1C2=O | 19.9 |
| COc1ccc2nc(C)cc(C(=O)O)c2c1 | 0.7 |
| COc1ccc(-c2noc(CN(C)C(=O)CCN3C(=O)[C@H]4CC=CC[C@H]4C3=O)n2)cc1 | -2 |
| COc1ccc(CCNC(=O)NC2CCCCC2)cc1 | 0.125 |
| O=C(O)c1cccc(S(=O)(=O)Nc2ccc3c(c2)CCC3)c1 | 22.8 |
| S=C(Nc1ccccc1)N1CCN(C2CCCCC2)CC1 | -2.89 |
| COc1ccccc1/C=N/NC(=O)CC(=O)NCc1cccnc1 | 7.63 |
| Cc1ccc(NC(=O)C2CCCN2C(=O)OCc2ccccc2)c(C)c1 (stereo not shown) | 12.7 |
| COc1ccc(CN(C)Cc2nc3cc(OC)c(OC)cc3c(=O)[nH]2)c(OC)c1 | -16.9 |
| O=c1ncn(-c2ccccc2C(F)(F)F)c2ncccc12 | 14.9 |
| COC(=O)C1CCN(C(=O)C2CCC(=O)N(CCCc3ccccc3)C2)CC1 (stereo not shown) | 3.83 |
| CCOC(=O)CC(c1ccc(N)cc1)n1c(C)ccc1C (stereo not shown) | -10.9 |
| COC(=O)c1[nH]c2ccccc2c1NC(=O)CN1CCN(C(=O)c2ccco2)CC1 | -32.8 |

| Structure (SMILES) | hERG current change (%, negative = inhibition) at 10uM [%] |
| --- | --- |
| CCOc1ccccc1NC(=O)CCNS(=O)(=O)c1cccc2nsnc12 | -2.99 |
| Cc1cc(NC(=O)CC(C)C)c(=O)n(Cc2cccc(F)c2)c1 | -2.84 |
| CCOC(OCC)c1cn(Cc2ccc3c(c2)C(=O)c2ccccc2C3=O)nn1 | 12.6 |
| Cc1ccc(S(=O)(=O)NNC(=O)c2ccncc2)cc1[N+](=O)[O-] | 44.8 |
| O=C(CSc1nnc(C2CC2)n1Cc1ccccc1)c1ccc(S(=O)(=O)N2CCOCC2)cc1 | -23 |
| COc1cc(C(=O)Nc2ccc3c(c2)ncn3C)cc(OC)c1OC | 16.2 |
| O=C(CNC(=S)NC(=O)c1ccccc1)c1ccccc1 | -4.68 |
| O=C(NCc1ccccc1F)C1CCCN1C(=O)Nc1ccc(Cl)cc1 (stereo not shown) | 17.2 |
| COc1ccc(-c2nnc3ccc(SCC(=O)N4CCCC4)nn23)cc1 | -15.2 |
| CCCc1nnc(SCC(=O)Nc2nccs2)o1 | 9.99 |
| O=C(COC(=O)C1CC(=O)N(Cc2ccccc2)C1)Nc1ccc2c(c1)OCO2 (stereo not shown) | 5.98 |
| Cc1cc(Cl)ccc1OCC(=O)N/N=C1\CC2C=CCC12 (stereo not shown) | -19.7 |
| Cc1ccc(S(=O)(=O)N2CCN(S(=O)(=O)N3CCCCC3)CC2)cc1C | 2.99 |
| CCc1nc2nc(C)c(NS(=O)(=O)c3ccc(Br)s3)c(=O)n2[nH]1 | 13.8 |
| CN(C)C(=O)C1C2NC(=S)N(c3cccc(Cl)c3)C1(C)Oc1ccc(Cl)cc12 (stereo not shown) | 29.5 |
| O=C(NCCCn1ccnc1)c1cnn2c1NC(c1ccccc1)CC2C(F)(F)F (stereo not shown) | -25.7 |
| CC1Cc2ccccc2N1C(=O)CSc1nnc(-c2ccc(S(=O)(=O)N3CCCC3)cc2)n1C (stereo not shown) | -16.5 |
| CN1C(=S)SC(N(O)C(=O)Nc2ccccc2)C1(C)C (stereo not shown) | -1.77 |
| Cc1cccc(Cn2cccc2/C=C2/C(=N)N3C=CSC3=NC2=O)c1 | -1.72 |
| Cc1ccc(C(=O)N2CCN(C3c4cccc5cccc(c45)C3NS(=O)(=O)c3ccccc3)CC2)cc1 (stereo not shown) | 2.23 |
| CCCOC(=O)c1c(NC(=O)CSc2nc(-c3ccco3)cc(C(F)(F)F)n2)sc(C(=O)OC)c1C | -5.81 |
| Cc1cc(C(=O)Nc2ccon2)c(C)o1 | 14.2 |

| Structure (SMILES) | hERG current change (%, negative = inhibition) at 10uM [%] |
| --- | --- |
| Cc1nc(N2CCCC2C(=O)O)c2oc3ccccc3c2n1 (stereo not shown) | 14.7 |
| CC1CCN(c2ccc3nnc(CCC(=O)N4CCN(c5ccccc5F)CC4)n3n2)CC1 | -62.6 |
| CCc1n[nH]c(=S)n1/N=C/c1ccc(N(CC)CC)cc1 | -0.999 |
| CC(C)(C#CCCCCC#CC(C)(C)[N+](C)(C)C)[N+](C)(C)C.[I-] | 9.62 |
| CCCCNC(=O)O[C@@H]1C[C@H]2CCCC(=O)N3CC[C@@H](C1)[C@@H]23 | 8.77 |
| COc1ccc([C@@H]2CC(=O)c3c(O)cc(O[C@@H]4O[C@H](CO[C@@H]5O[C@@H](C)[C@H](O)[C@@H](O)[C@H]5O)[C@@H](O)[C@H](O)[C@H]4O)cc3O2)cc1O | 7.74 |
| COc1ccc(CCN(C)C2CCCN(C(=O)CCSC)C2)cc1OC (stereo not shown) | -57.2 |
| COc1ccc(OC)c(NC(=O)c2sc3nc(C)cc(C)c3c2N)c1 | 23.2 |
| CC(=O)c1cccc(NS(=O)(=O)c2ccc(C(=O)Nc3ccccc3)cc2)c1 | 5.75 |
| COCCOc1cc2ncnc(N3CCC(C(=O)O)CC3)c2cc1OCCOC | 4.85 |
| Cc1cc(/C=N/NC(=O)c2ccccn2)c(C)n1-c1cccc([N+](=O)[O-])c1 | 8.4 |
| Cc1ccccc1CSCC(=O)NC1CCCC1 | 8.23 |
| C=CCOc1nc2sc(C)c(C)c2c(=O)n1-c1ccccc1 | 0.693 |
| c1ccc(-c2nnc(-c3ccccn3)c(-c3ccccn3)n2)nc1 | 6.15 |
| Cc1cc(C)cc(NCCC#N)c1 | 3.22 |
| CCOC(=O)c1sc(N(Cc2ccccc2)C(=O)COC(=O)c2cnccn2)nc1C | 0.26 |
| NC(=O)CSc1nc(C2CC2)nc2sc3c(c12)CCCC3 | 55.9 |
| O=[N+]([O-])c1cccc(CNC2CCCCCC2)c1 | -3.47 |
| COc1cc(Nc2ccccn2)cc(C(=O)Nc2cccc(C(F)(F)F)c2)c1 | -2.6 |
| CCNC(=S)N1CCN(c2ccccn2)CC1 | 11.6 |
| COc1cccc(/C=C/C(=O)OCC(=O)c2cc(C)n(CC3CCCO3)c2C)c1OC (stereo not shown) | 6.95 |
| COC(C(=O)N/N=C(\C)c1ccc(C)cc1)c1ccccc1 (stereo not shown) | 5.03 |

| Structure (SMILES) | hERG current change (%, negative = inhibition) at 10uM [%] |
| --- | --- |
| Cn1c2ccccc2c2n[nH]c(=S)nc21 | 11.5 |
| Cc1ccccc1CN1CCC(C(=O)Nc2ccc(Oc3cccnc3)cc2)CC1 | -48.6 |
| O=C(Nc1ccccn1)[C@@H]1CCC(=O)N1C(=O)OCc1ccccc1 | 4.77 |
| CC(N)C12CC3CC(CC(C3)C1)C2.Cl (stereo not shown) | 14.1 |
| O=C(Nc1ccc2c(c1)OCO2)c1cc(-c2ccncc2)nc2ccccc12 | -3.22 |
| O=C(/C=C/c1ccccc1)OCC(=O)c1ccc[nH]1 | 9.74 |
| O=C(NNC1CC(=O)N(c2cccc(Cl)c2)C1=O)c1cccs1 (stereo not shown) | 3.18 |
| CCOC(=O)c1ccc(NC(=S)N2CCSC2c2c(F)cc(F)cc2F)cc1 (stereo not shown) | 2.26 |
| CCOC(=O)C1(Cc2cccc(OC)c2)CCN(Cc2cnc(SC)nc2)CC1 | -27 |
| O=C(CCn1nc(-c2ccccc2)c2ccccc2c1=O)Nc1cccnc1 | 17.2 |
| CN1CCC(OC(=O)COc2ccc(C(C)(C)C)cc2)CC1.Cl | -28.7 |
| Cc1ccc(F)cc1NC(=O)N1CCCN(C(=O)OC(C)(C)C)CC1 | 13.4 |
| Cc1ccc(S(=O)(=O)NC2CCC(C(=O)O)CC2)cc1 (stereo not shown) | -1.64 |
| CCn1cc(S(=O)(=O)c2ccc(OC)cc2)c(=O)c2cc(OC)ccc21 | 8.19 |
| Cc1ccc(C(=O)N2CCCCC2)cc1S(=O)(=O)N1CCCC1 | 5.55 |
| O=C(NC(c1ccc(Cl)cc1)P(=O)(Oc1ccccc1)Oc1ccccc1)OCc1ccccc1 (stereo not shown) | 9.86 |
| Cc1[nH]n(-c2cccc(Cl)c2)c(=O)c1C=NC12CN3CN(CN(C3)C1)C2 | -19 |
| O=C(CCC1CCCN(C(=O)c2ccc(F)c(F)c2)C1)N1CCN(c2ccccn2)CC1 (stereo not shown) | -6.26 |
| Cn1c(CNC(=O)C(C)(C)C)nc2ccccc21 | -4.96 |
| Cc1cc(N/N=C\c2ccccc2)nc(-c2ccccc2O)n1 | 4.95 |
| CCN(CC)c1ccc2c(C)c(CN3CCOCC3)c(=O)oc2c1 | -11.1 |
| Cn1nc(C(=O)N2CCN(C(c3ccccc3)c3ccccc3)CC2)c2ccccc2c1=O | -35.2 |
